According to the supplement of paper PMC4604168 (melanoma cell lines):
The list shows a part of the results. Single values are uncertain, as repeats are few or missing.

Each molecule was assayed on LB2518-MEL (assay: cell count relative to DMSO control; melanoma cells; higher = more viable cells). Settings: library dose: standard library concentration; 72 h.
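Note: cells treated in 1,536-well plates, then fixed and DAPI-stained, with nuclei counted from automated high-throughput microscope images.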

Structure (SMILES)	cell count [%]
COc1ccc(COc2ccc(Cc3cnc(N)nc3N)cc2OC)cc1 + Oc1cc(-c2nc(-c3ccccc3)[nH]c2-c2ccncc2)ccc1Cl [L779450] (first compound 5 µM, partner dose 1 µM)	78.8
N#Cc1c(O)c2c(-c3ccc(-c4ccccc4O)cc3)csc2[nH]c1=O + c1cc(-c2cnn3cc(-c4ccc(OCCN5CCCCC5)cc4)cnc23)ccn1 [Dorsomorphin] (first compound 10 µM, partner dose 2 µM)	82.5
Oc1nc(-c2ccc(C(F)(F)F)cc2)nc2c1CSCC2 + COc1cc(N2CCC(N3CCN(C)CC3)CC2)ccc1Nc1ncc(Cl)c(Nc2ccccc2S(=O)(=O)C(C)C)n1 [NVP-TAE684] (first compound 10 µM, partner dose 0.4 µM)	130
COc1ccc(-c2ccc3c(N4CCOCC4)nc(N4C[C@@H](C)O[C@@H](C)C4)nc3n2)cc1CO + O=S(=O)(c1ccccc1)N(CC(F)(F)F)c1ccc(C(O)(C(F)(F)F)C(F)(F)F)cc1 [T0901317] (first compound 0.1 µM, partner dose 7 µM)	67.9
COc1ccc(COc2ccc(Cc3cnc(N)nc3N)cc2OC)cc1 + CC(C)CCN1c2nc(Nc3cc(F)c(O)c(F)c3)ncc2N(C)C(=O)C1C [BID1870] (first compound 5 µM, partner dose 1 µM)	84.4
c1cc(-c2cnn3cc(-c4ccc(OCCN5CCCCC5)cc4)cnc23)ccn1 [Dorsomorphin] + CC(C)CCN1c2nc(Nc3cc(F)c(O)c(F)c3)ncc2N(C)C(=O)C1C [BID1870] (first compound 2 µM, partner dose 1 µM)	73
N#Cc1c(O)c2c(-c3ccc(-c4ccccc4O)cc3)csc2[nH]c1=O + O=c1cc(-c2cccc3c2Sc2ccccc2S3)oc(N2CCOCC2)c1 [KU55933] (first compound 10 µM, partner dose 5 µM)	103
N#Cc1c(O)c2c(-c3ccc(-c4ccccc4O)cc3)csc2[nH]c1=O + CCN(CC)CCCCNc1ncc2cc(-c3cc(OC)cc(OC)c3)c(NC(=O)NC(C)(C)C)nc2n1 [PD173074] (first compound 10 µM, partner dose 0.5 µM)	81.2
Oc1cc(-c2nc(-c3ccccc3)[nH]c2-c2ccncc2)ccc1Cl + Oc1nc(-c2ccc(C(F)(F)F)cc2)nc2c1CSCC2 [XAV939] (first compound 1 µM, partner dose 10 µM)	86.5
O=S(=O)(c1ccccc1)N(CC(F)(F)F)c1ccc(C(O)(C(F)(F)F)C(F)(F)F)cc1 + Oc1cc(-c2nc(-c3ccccc3)[nH]c2-c2ccncc2)ccc1Cl [L779450] (first compound 7 µM, partner dose 1 µM)	80.9
N#Cc1c(O)c2c(-c3ccc(-c4ccccc4O)cc3)csc2[nH]c1=O + Oc1cc(-c2nc(-c3ccccc3)[nH]c2-c2ccncc2)ccc1Cl [L779450] (first compound 10 µM, partner dose 1 µM)	83.8

These molecules were tested on LOXIMVI in the same assay as above. Settings: library dose: standard library concentration; 72 h.

Structure (SMILES)	cell count [%]
Cn1cc(/C=C2\C(=O)Nc3cccnc32)c2ccccc21 + CCCCCCCCCCCC1=C(O)C(=O)C=C(O)C1=O [Embelin] (first compound 2 µM, partner dose 6 µM)	56.5
COc1ccc2c(c1)CCC1C2CCC2(C)C(NCCCCCCN3C(=O)C=CC3=O)CCC12 (stereo not given) + CCCCCCCCCCCC1=C(O)C(=O)C=C(O)C1=O [Embelin] (first compound 2 µM, partner dose 6 µM)	104
COc1cc2ncnc(Nc3ccc(Oc4ccccc4)cc3)c2cc1OC + Cn1cc(/C=C2\C(=O)Nc3cccnc32)c2ccccc21 [GW441756] (first compound 10 µM, partner dose 2 µM)	65.8
Cc1cc([N+](=O)[O-])ccc1NS(=O)(=O)c1cc(Cl)ccc1Cl + COc1cc(N2CCC(N3CCN(C)CC3)CC2)ccc1Nc1ncc(Cl)c(Nc2ccccc2S(=O)(=O)C(C)C)n1 [NVP-TAE684] (first compound 5 µM, partner dose 0.4 µM)	113
N#Cc1c(O)c2c(-c3ccc(-c4ccccc4O)cc3)csc2[nH]c1=O + COc1cc(N2CCC(N3CCN(C)CC3)CC2)ccc1Nc1ncc(Cl)c(Nc2ccccc2S(=O)(=O)C(C)C)n1 [NVP-TAE684] (first compound 10 µM, partner dose 0.4 µM)	103
O=S(=O)(c1ccccc1)N(CC(F)(F)F)c1ccc(C(O)(C(F)(F)F)C(F)(F)F)cc1 + Cc1cc([N+](=O)[O-])ccc1NS(=O)(=O)c1cc(Cl)ccc1Cl [FH535] (first compound 7 µM, partner dose 5 µM)	52.6
COc1ccc(-c2ccc3c(N4CCOCC4)nc(N4C[C@@H](C)O[C@@H](C)C4)nc3n2)cc1CO + Oc1nc(-c2ccc(C(F)(F)F)cc2)nc2c1CSCC2 [XAV939] (first compound 0.1 µM, partner dose 10 µM)	122
COc1ccc(-c2ccc3c(N4CCOCC4)nc(N4C[C@@H](C)O[C@@H](C)C4)nc3n2)cc1CO + O=C1NC(=O)/C(=C/c2ccc(-c3ccc(F)cc3O)o2)S1 [AS252424] (first compound 0.1 µM, partner dose 5 µM)	105
COC(=O)c1sccc1S(=O)(=O)Nc1ccc(Nc2ccccc2)cc1OC + Cc1cc([N+](=O)[O-])ccc1NS(=O)(=O)c1cc(Cl)ccc1Cl [FH535] (first compound 5 µM, partner dose 5 µM)	86.9
CCN(CC)CCCCNc1ncc2cc(-c3cc(OC)cc(OC)c3)c(NC(=O)NC(C)(C)C)nc2n1 + Cn1cc(/C=C2\C(=O)Nc3cccnc32)c2ccccc21 [GW441756] (first compound 0.5 µM, partner dose 2 µM)	89.2
CCN(CC)CCCCNc1ncc2cc(-c3cc(OC)cc(OC)c3)c(NC(=O)NC(C)(C)C)nc2n1 + c1cc(-c2cnn3cc(-c4ccc(OCCN5CCCCC5)cc4)cnc23)ccn1 [Dorsomorphin] (first compound 0.5 µM, partner dose 2 µM)	84
CCN(CC)CCCCNc1ncc2cc(-c3cc(OC)cc(OC)c3)c(NC(=O)NC(C)(C)C)nc2n1 + O=C(O)C(=O)Nc1sc2c(c1C(=O)O)CCNC2 [TCS401] (first compound 0.5 µM, partner dose 8.33333 µM)	95.5
COc1ccc(COc2ccc(Cc3cnc(N)nc3N)cc2OC)cc1 + O=S(=O)(c1ccccc1)N(CC(F)(F)F)c1ccc(C(O)(C(F)(F)F)C(F)(F)F)cc1 [T0901317] (first compound 5 µM, partner dose 7 µM)	130
O=S(=O)(c1ccccc1)N(CC(F)(F)F)c1ccc(C(O)(C(F)(F)F)C(F)(F)F)cc1 + Cn1cc(/C=C2\C(=O)Nc3cccnc32)c2ccccc21 [GW441756] (first compound 7 µM, partner dose 2 µM)	90.2
Cn1cc(/C=C2\C(=O)Nc3cccnc32)c2ccccc21 + CC(C)CCN1c2nc(Nc3cc(F)c(O)c(F)c3)ncc2N(C)C(=O)C1C [BID1870] (first compound 2 µM, partner dose 1 µM)	94.4
COC(=O)c1sccc1S(=O)(=O)Nc1ccc(Nc2ccccc2)cc1OC + COc1cc2ncnc(Nc3ccc(Oc4ccccc4)cc3)c2cc1OC [SrcI1] (first compound 5 µM, partner dose 10 µM)	72.7
O=S(=O)(c1ccccc1)N(CC(F)(F)F)c1ccc(C(O)(C(F)(F)F)C(F)(F)F)cc1 + CCCCCCCCCCCC1=C(O)C(=O)C=C(O)C1=O [Embelin] (first compound 7 µM, partner dose 6 µM)	108
N#Cc1c(O)c2c(-c3ccc(-c4ccccc4O)cc3)csc2[nH]c1=O + COc1ccc(-c2ccc3c(N4CCOCC4)nc(N4C[C@@H](C)O[C@@H](C)C4)nc3n2)cc1CO [KU0063794] (first compound 10 µM, partner dose 0.1 µM)	104
COc1ccc2c(c1)CCC1C2CCC2(C)C(NCCCCCCN3C(=O)C=CC3=O)CCC12 (stereo not given) + CC(C)CCN1c2nc(Nc3cc(F)c(O)c(F)c3)ncc2N(C)C(=O)C1C [BID1870] (first compound 2 µM, partner dose 1 µM)	80.1
Oc1cc(-c2nc(-c3ccccc3)[nH]c2-c2ccncc2)ccc1Cl + O=C1NC(=O)/C(=C/c2ccc(-c3ccc(F)cc3O)o2)S1 [AS252424] (first compound 1 µM, partner dose 5 µM)	95.9
COc1ccc2c(c1)CCC1C2CCC2(C)C(NCCCCCCN3C(=O)C=CC3=O)CCC12 (stereo not given) + c1cc(-c2cnn3cc(-c4ccc(OCCN5CCCCC5)cc4)cnc23)ccn1 [Dorsomorphin] (first compound 2 µM, partner dose 2 µM)	83.3
Cn1cc(/C=C2\C(=O)Nc3cccnc32)c2ccccc21 + O=c1cc(-c2cccc3c2Sc2ccccc2S3)oc(N2CCOCC2)c1 [KU55933] (first compound 2 µM, partner dose 5 µM)	111
O=S(=O)(c1ccccc1)N(CC(F)(F)F)c1ccc(C(O)(C(F)(F)F)C(F)(F)F)cc1 + O=c1cc(-c2cccc3c2Sc2ccccc2S3)oc(N2CCOCC2)c1 [KU55933] (first compound 7 µM, partner dose 5 µM)	101
COc1ccc(COc2ccc(Cc3cnc(N)nc3N)cc2OC)cc1 + Oc1cc(-c2nc(-c3ccccc3)[nH]c2-c2ccncc2)ccc1Cl [L779450] (first compound 5 µM, partner dose 1 µM)	102
